Reference: the supplement of paper PMC8728848
The list shows a part of the results.

What was measured:
Assay in all cases: glycan array binding signal (z-score within array); higher = stronger binding
Settings in all cases: glycan notation: IUPAC condensed, linker removed
[1] = target: Fuc(a1-2)[Gal(a1-3)]Gal(b1-4)GlcNAc(b1-2)Man(a1-3)[Fuc(a1-2)[Gal(a1-3)]Gal(b1-4)GlcNAc(b1-2)Man(a1-6)]Man(b1-4)GlcNAc(b1-4)GlcNAc
In short: (§1)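 Glycan array data came from 3228 arrays in the Consortium for Functional Glycomics database, and only arrays with an available protein sequence were kept. Glycan names were put into IUPAC-condensed notation, and columns mapping to the same glycan were averaged. The binding signal is a within-array Z-score, averaged across arrays of one protein sequence run at different concentrations or buffers and across linkers. A negative Z-score can be read as non-binding.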

[2] = target: Fuc(a1-2)[Gal(a1-3)]Gal(b1-4)[Fuc(a1-3)]GlcNAc
In short: as §1

[3] = target: Fuc(a1-2)[Gal(a1-4)]Gal(b1-4)GlcNAc
In short: as §1

[4] = target: Fuc(a1-2)[GalNAc(a1-3)]Gal
In short: as §1

[5] = target: Fuc(a1-2)[GalNAc(a1-3)]Gal(b1-3)GlcNAc
In short: as §1

[6] = target: Fuc(a1-2)[GalNAc(a1-3)]Gal(b1-3)GlcNAc(b1-2)Man(a1-3)[Fuc(a1-2)[GalNAc(a1-3)]Gal(b1-3)GlcNAc(b1-2)Man(a1-6)]Man(b1-4)GlcNAc(b1-4)GlcNAc
In short: as §1

[7] = target: Fuc(a1-2)[GalNAc(a1-3)]Gal(b1-4)Glc
In short: as §1

[8] = target: Fuc(a1-2)[GalNAc(a1-3)]Gal(b1-4)GlcNAc
In short: as §1

[9] = target: Fuc(a1-2)[GalNAc(a1-3)]Gal(b1-4)GlcNAc(b1-2)Man(a1-3)[GalNAc(a1-3)[Fuc(a1-2)]Gal(b1-4)GlcNAc(b1-2)Man(a1-6)]Man(b1-4)GlcNAc(b1-4)GlcNAc
In short: as §1

[10] = target: Fuc(a1-2)[GalNAc(a1-3)]Gal(b1-4)GlcNAc(b1-3)Gal(b1-4)GlcNAc
In short: as §1

[11] = target: Fuc(a1-2)[GalNAc(a1-3)]Gal(b1-4)GlcNAc(b1-3)Gal(b1-4)GlcNAc(b1-3)Gal(b1-4)GlcNAc
In short: as §1

[12] = target: Fuc(a1-2)[GalNAc(a1-3)]Gal(b1-4)[Fuc(a1-3)]GlcNAc
In short: as §1

[13] = target: Fuc(a1-2)[GalNAc(a1-4)]Gal(b1-4)GlcNAc
In short: as §1

[14] = target: Fuc(a1-2)[GalNAc(b1-3)]Gal
In short: as §1

Fuc(a1-3)GlcNAc = target: Fuc(a1-3)GlcNAc
In short: as §1

[15] = target: Fuc(a1-3)[Gal(b1-4)]Glc6S
In short: as §1

[16] = target: Fuc(a1-3)[Gal(b1-4)]GlcNAc
In short: as §1

[17] = target: Fuc(a1-3)[Gal(b1-4)]GlcNAc(b1-2)Man(a1-3)[Fuc(a1-3)[Gal(b1-4)]GlcNAc(b1-2)Man(a1-6)]Man(b1-4)GlcNAc(b1-4)GlcNAc
In short: as §1

[18] = target: Fuc(a1-3)[Gal(b1-4)]GlcNAc(b1-2)Man(a1-6)[Gal(b1-4)GlcNAc(b1-2)Man(a1-3)]Man(b1-4)GlcNAc(b1-4)GlcNAc
In short: as §1

[19] = target: Fuc(a1-3)[Gal(b1-4)]GlcNAc(b1-3)Gal(b1-3)[Fuc(a1-4)]GlcNAc
In short: as §1

[20] = target: Fuc(a1-3)[Gal(b1-4)]GlcNAc(b1-4)Gal(b1-4)[Fuc(a1-3)]GlcNAc
In short: as §1

[21] = target: Fuc(a1-3)[Gal(b1-4)]GlcNAc(b1-4)Gal(b1-4)[Fuc(a1-3)]GlcNAc(b1-4)Gal(b1-4)[Fuc(a1-3)]GlcNAc
In short: as §1

[22] = target: Fuc(a1-3)[Gal(b1-4)]GlcNAc6S
In short: as §1

[23] = target: Fuc(a1-3)[Gal3S(b1-4)]Glc6S
In short: as §1

[24] = target: Fuc(a1-3)[Gal3S(b1-4)]GlcNAc
In short: as §1

[25] = target: Fuc(a1-3)[Gal3S(b1-4)]GlcNAc6S
In short: as §1

[26] = target: Fuc(a1-3)[GalNAc(b1-4)]GlcNAc
In short: as §1

[27] = target: Fuc(a1-3)[Neu5Ac(a2-3)]Gal(b1-4)GlcNAc(b1-3)GalNAc
In short: as §1

Fuc(a1-4)GlcNAc = target: Fuc(a1-4)GlcNAc
In short: as §1

Fuc(b1-3)GlcNAc = target: Fuc(b1-3)GlcNAc
In short: as §1

B1: Ficolin B (Rattus norvegicus), P57756 (protein)
chain: MVLGSAALFVLSLCVTELTLHAADTCPEVKVLDLEGSNKLTILQGCPGLPGALGPKGEAGAKGDRGESGLPGHPGKAGPTGPKGDRGEKGVRGEKGDTGPSQSCATGPRTCKELLTRGYFLTGWYTIYLPDCRPLTVLCDMDTDGGGWTVFQRRIDGTVDFFRDWTSYKQGFGSQLGEFWLGNDNIHALTTQGTNELRVDLADFDGNHDFAKYSSFQIQGEAEKYKLILGNFLGGGAGDSLTSQNNMLFSTKDQDNDQGSSNCAVRYHGAWWYSDCHTSNLNGLYLRGLHKSYANGVNWKSWKGYNYSYKVSEMKVRLI
Question: For B1, which “glycan array binding signal (z-score)” value [1] is on record?
Answer: -0.067

Question: And the “glycan array binding signal (z-score)” value [2]?
Answer: 0.067

Question: And the “glycan array binding signal (z-score)” value [3]?
Answer: 0.381

Question: What about the “glycan array binding signal (z-score)” value [4] of the same binder?
Answer: -0.146

Question: And the “glycan array binding signal (z-score)” value [5]?
Answer: -0.039

Question: And the “glycan array binding signal (z-score)” value [6]?
Answer: -0.051

Question: What about the “glycan array binding signal (z-score)” value [7] of the same binder?
Answer: -0.208

Question: And the “glycan array binding signal (z-score)” value [8]?
Answer: -0.213

Question: What about the “glycan array binding signal (z-score)” value [9] of the same binder?
Answer: 0.306

Question: And the “glycan array binding signal (z-score)” value [10]?
Answer: -0.19

Question: What about the “glycan array binding signal (z-score)” value [11] of the same binder?
Answer: -0.124

Question: And the “glycan array binding signal (z-score)” value [12]?
Answer: -0.138

Question: What about the “glycan array binding signal (z-score)” value [13] of the same binder?
Answer: -0.185

Question: And the “glycan array binding signal (z-score)” value [14]?
Answer: -0.203

Question: What about the “glycan array binding signal (z-score)” value (Fuc(a1-3)GlcNAc) of the same binder?
Answer: -0.124

Question: What about the “glycan array binding signal (z-score)” value [15] of the same binder?
Answer: -0.199

Question: And the “glycan array binding signal (z-score)” value [16]?
Answer: -0.22

Question: What about the “glycan array binding signal (z-score)” value [17] of the same binder?
Answer: -0.214

Question: And the “glycan array binding signal (z-score)” value [18]?
Answer: -0.166

Question: What about the “glycan array binding signal (z-score)” value [19] of the same binder?
Answer: -0.073

Question: And the “glycan array binding signal (z-score)” value [20]?
Answer: -0.044

Question: And the “glycan array binding signal (z-score)” value [21]?
Answer: -0.137

Question: And the “glycan array binding signal (z-score)” value [22]?
Answer: -0.142

Question: What about the “glycan array binding signal (z-score)” value [23] of the same binder?
Answer: -0.09

Question: And the “glycan array binding signal (z-score)” value [24]?
Answer: -0.2

Question: What about the “glycan array binding signal (z-score)” value [25] of the same binder?
Answer: -0.167

Question: What about the “glycan array binding signal (z-score)” value [26] of the same binder?
Answer: -0.214

Question: And the “glycan array binding signal (z-score)” value [27]?
Answer: 0.186

Question: And the “glycan array binding signal (z-score)” value (Fuc(a1-4)GlcNAc)?
Answer: -0.089

Question: What about the “glycan array binding signal (z-score)” value (Fuc(b1-3)GlcNAc) of the same binder?
Answer: -0.164
